Measured values: patent US20090123474A1, “COMBINATION OF ANGIOPOIETIN-2 ANTAGONIST AND OF VEGF-A, KDR AND/OR FLTL ANTAGONIST FOR TREATING CANCER” (ASTRAZENECA AB, priority 2005, published 2009)

Target: T1, Angiopoietin-2 binding to Tie-2 (Homo sapiens, UniProt O15123)
T1 construct: purchased R&D Systems, Inc. BT623 (Angiopoietin-2, biotinylated); 313-TI-100 (Tie-2/Fc)
T1 sequence (O15123 19-496): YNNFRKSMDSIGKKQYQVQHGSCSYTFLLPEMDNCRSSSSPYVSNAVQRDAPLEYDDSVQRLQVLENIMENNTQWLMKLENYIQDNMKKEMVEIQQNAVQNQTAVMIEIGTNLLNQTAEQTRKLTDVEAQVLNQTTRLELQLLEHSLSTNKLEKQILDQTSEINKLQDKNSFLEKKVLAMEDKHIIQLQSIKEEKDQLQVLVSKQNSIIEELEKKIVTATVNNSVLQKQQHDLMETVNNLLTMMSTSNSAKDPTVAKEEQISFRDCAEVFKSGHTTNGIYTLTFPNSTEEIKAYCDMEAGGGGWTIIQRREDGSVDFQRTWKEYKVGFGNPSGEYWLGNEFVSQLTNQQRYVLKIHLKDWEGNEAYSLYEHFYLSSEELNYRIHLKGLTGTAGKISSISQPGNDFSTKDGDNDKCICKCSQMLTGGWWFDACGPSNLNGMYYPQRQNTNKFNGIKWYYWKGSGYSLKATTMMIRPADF
Test: Competitive binding assay (modified ELISA): inhibition of Angiopoietin-2 binding to Tie-2
Description: As discussed above, Angiopoietin-2 exerts its biological effect by binding to the Tie-2 receptor. Monoclonal antibodies that inhibited Angiopoietin-2/Tie-2 binding were identified by a competitive binding assay using a modified ELISA. The mAb used were products of micro-purification from 50 ml of exhaustive supernatants of the hybridoma pools that were specific for Angiopoietin-2 (see above). 96-well Nunc Immplates™ were coated with 100 μl of recombinant human Tie-2/Fc fusion protein (R&D Systems, Inc., Cat. No. 313-TI-100) at 4 μg/ml by incubating overnight at 4° C. The plates were washed four times using Phosphate Buffer Saline (PBS) with a Skan™ Washer 300 station (SKATRON). […]
Biotinylated recombinant human Angiopoietin-2 (R&D Systems, Inc. Cat. No. […] Bound biotinylated Angiopoietin-2 was then detected using 100 μl/well of Streptavidin-HRP conjugate at 1:200 by incubating at room temperature for half an hour. After washing twice, the bound Streptavidin was detected by HRP substrate (R&D Systems, Cat. No. DY998). […] The light absorbance at 450 nm was determined by a Spectramax Plus reader. […]
To quantitate the inhibitory activities of the mAb on Angiopoietin-2 binding to Tie-2, the titer was determined for purified mAbs from the top candidates using a competitive binding assay. […] The maximal inhibition (efficacy) and IC50 (potency) were calculated by the software.

- EC50 (potency, competitive binding of Angiopoietin-2 to Tie-2, purified mAb): 0.3643 µg/mL
- Efficacy* (ratio of bound Angiopoietin-2 with mAb (30 μg/ml) versus without mAb): 0.2317
B1: mAb 5.103.1: fully human anti-Angiopoietin-2 monoclonal antibody, variable regions SEQ ID NO: 37-40 (antibody, listed as Homo Sapiens, listed as Homo sapiens, V domains shown)
VH: QVQLVQSGAEVKKPGASVKVSCKASGYTFTGYYLYWVPQAPGQGLEWMGWISPNSGGTNYAQKFQGRVTMTRDTSISTAYMELSRLRSDDTAVYYCARDQVIAVAGPFDYWAQGTLVTVSSA
VL: ETVMTQSPATLSVSPGERVTLSCRASQSVISSLAWYQQKPGQAPRLLIYGASTRATGIPARFSGSGSGTEFTLTISSLQSEDFAVYYCQQYNNWWTFGQGTKVEIKR
